# PubChem BioAssay AID651820 (National Center for Advancing Translational Sciences (NCATS), 2012)
# Among all 340,000 compounds or so, about 12,000 (3.5%) were called active. The inconclusive results got no clear call from the source; some entries with a clear call stand among them for comparison. Calls follow the shape of the dose curve; as a rule, active = well fitted inhibition curve with a large enough effect; inconclusive = small, poorly fitted or top-dose-only effect, or another doubt; inactive = no such curve, though single readings can be large or run the other way. Potencies of inconclusive entries are left out as doubtful fits.
# Test: qHTS Assay for Inhibitors of Hepatitis C Virus (HCV)
# Details: Huh7.5.1 HCVcc-Cre (HCVcc is cell-culture hepatitis C virus) infection, luciferase reporter, 44 h; activity change, negative = inhibition: at 41.8 µM (top of the series) unless noted
# How it was run: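 HCVcc-Cre virus at an moi near 0.5 was added right after compound to cells cultured 4 h from seeding (1,000 cells/well). Luciferase activity was determined 44 h later, 15 min after substrate addition at RT.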
# % is scaled to controls: 0 for no effect and ±100 for the full control effect; potency is read from the fitted curve at half-maximal effect; tags tell the direction and shape of the fitted curve.
Compound,Potency,"activity change, negative = inhibition"
Cc1c(C(=O)NCCC2=CCCCC2)oc2ccc(S(=O)(=O)N3CCOCC3)cc12,active: 10 µM,
CN(CC1CCCN(CCc2cccc(C(F)(F)F)c2)C1)C(=O)c1cc2ccccc2o1 (configuration not stated),"inconclusive [inhibitor, partial curve]",
COc1cccc(N/C=C/C(=O)c2ccc(OC)c(OC)c2)c1,"inconclusive [inhibitor, partial curve]",
Nn1c(SCc2ccccn2)nncc1=O,inactive,
CC(C)C[C@@]12C(=O)N(c3cccc(F)c3)C(=O)N1[C@H](c1ccc(Cl)cc1)[C@@H]1C(=O)N(C3CCCCC3)C(=O)[C@@H]12,inactive,
CCCSc1ccc2nc(-c3ccccc3)cn2c1,"inconclusive [inhibitor, single point]",
COc1cc(/C=C(\C#N)c2nn(CCO)c(N)c2C#N)cc(OC)c1OC,"inconclusive [inhibitor, single point]",
CC(C)Oc1ccc(S(=O)(=O)N2CCCCC2)cc1NC(=O)CN1CCCC1c1cccs1 (configuration not stated),"inconclusive [inhibitor, partial curve]",
C/C(=C\C(=O)c1ccc(C)o1)Nc1ccc2c(c1)OCO2,inactive,
Cc1ccc(NC(=O)c2ccc(S(=O)(=O)N(C)c3ccccc3)cc2)cc1S(=O)(=O)N1CCOCC1,"inconclusive [inhibitor, partial curve]",
CCn1c(Cc2ccc(OC)cc2)nnc1SCC(=O)N1CCN(c2ccccc2)CC1,"inconclusive [inhibitor, single point]",
Cc1cccc(-n2c(O)c(C=Nc3ccc4c(c3)OCO4)c3ccccc3c2=O)n1,"inconclusive [inhibitor, single point]",
COC(=O)c1c(NC(=O)C2COc3ccccc3O2)sc2c1CCN(C(C)=O)C2 (configuration not stated),"inconclusive [inhibitor, full curve]",
CC1C=CCC2C(=O)N(c3cccc(C(=O)N4CCCCCC4)c3)C(=O)C12 (configuration not stated),"inconclusive [inhibitor, single point]",
O=C1COc2ccc(-c3csc(NCC4CCCO4)n3)cc2N1 (configuration not stated),"inconclusive [inhibitor, single point]",
O=C(C1Cc2ccccc2CN1S(=O)(=O)c1cccs1)N1CCCCC1 (configuration not stated),inactive,
CN1C(=O)/C(=C/c2ccccc2F)Sc2ccc(C(=O)N3CCCC3)cc21,"inconclusive [inhibitor, single point]",
COc1cccc(CNC(=O)COC(=O)CCS(=O)(=O)c2ccc(C)cc2)c1,inactive,
CCOC(=O)C1(CCCc2ccccc2)CCN(C2CCCC2)CC1,"inconclusive [inhibitor, single point]",
CC(=O)Nc1ccc(NC(=O)C(C)N2CCN(S(=O)(=O)c3ccc(C)cc3)CC2)cc1 (configuration not stated),inactive,
Cc1onc(-c2ccccc2)c1C(=O)N/N=C/c1ccc([N+](=O)[O-])s1,"inconclusive [inhibitor, single point]",
CCN1CCCC1CNC(=O)Cn1nc(C)n2nc(-c3ccccc3)cc2c1=O (configuration not stated),inactive,
Cc1ccc2c(c1)C(=O)C(=O)N2CC(=O)OC(C)C,inactive,
Cc1cccc(C2=NN(c3ccccc3)[C@@H](C(=O)N3CCOC3=O)[C@@H]2C)c1,"inconclusive [inhibitor, single point]",

Compound,Potency,"activity change, negative = inhibition"
CNC(=O)c1cc2c(-c3ccccc3)nn(C)c2s1,inactive,
O=C(C1CCCN(c2ncnc3c2nc2n3CCCCC2)C1)N1CCN(c2ccc(F)cc2)CC1 (configuration not stated),active: 11.2 µM,
COc1ccccc1N(Cc1ccccc1)S(=O)(=O)c1cccc(C(=O)Nc2ccccn2)c1,"inconclusive [inhibitor, single point]",
CCC1C(=O)C(C)(C)C(=O)OC1c1ccc([N+](=O)[O-])cc1 (configuration not stated),inactive,
CN(C)c1ccc(C(=S)N2CCCCC2)cc1,inactive,
COc1cc(C(=O)NC(=S)NNC(=O)c2cnccn2)cc(OC)c1OC,"inconclusive [inhibitor, partial curve]",
CCC/C(O)=C1\C(=O)CC(C)(C)CC1=Nc1cccc([N+](=O)[O-])c1,"inconclusive [inhibitor, partial curve]",
COc1ccc2cc3cc(C(=O)NCc4ccco4)oc3nc2c1,"inconclusive [inhibitor, single point]",
CCN(C(=O)COC(=O)c1c(C)c(-c2ccccc2)nc2ccccc12)C1CCS(=O)(=O)C1 (configuration not stated),active: 12.6 µM,
Cc1cc(Cl)ccc1NC(=O)CCC(=O)N/N=C/c1cc([N+](=O)[O-])ccc1O,inactive,
COC(=O)Nc1ccc(S(=O)(=O)N2c3ccccc3CCC2C)cc1 (configuration not stated),inactive,
Cc1nnc(SC2CC(=O)N(c3ccccc3)C2=O)s1 (configuration not stated),"inconclusive [inhibitor, partial curve]",
Cc1cccc(N2CCN(C(=O)CCCn3c(=S)[nH]c4cc5c(cc4c3=O)OCO5)CC2)c1C,"inconclusive [inhibitor, single point]",
N#Cc1cccn1-c1nccc(-c2cccs2)n1,"inconclusive [inhibitor, single point]",
Cn1c(=O)c2sccc2n(Cc2ccc(Br)cc2)c1=O,"inconclusive [inhibitor, partial curve]",
CC(C)(C)NC(=O)c1ccccc1-c1nc(-c2ccccc2Cl)no1,inactive,
CCC(CO)Oc1cc(NCc2ccc(Cl)cc2Cl)c2ncn(C(C)C)c2c1 (configuration not stated),"inconclusive [inhibitor, partial curve]",
O=C(O)c1nn(CCOc2ccccc2F)c(=O)c2ccccc12,inactive,
CC1(OC(=O)C2CCCC2)C(=O)C=C2C=C(c3ccsc3)N(CCc3c[nH]c4ccccc34)C=C2C1=O (configuration not stated),inactive,
CC1(C)CC(=O)C=C(C(=O)N2CCCC(C(=O)c3cccc(C(F)(F)F)c3)C2)O1 (configuration not stated),"inconclusive [inhibitor, single point]",
COc1ccc(CC(=O)Nc2ccc(-c3cn4ccccc4n3)cc2)cc1OC,inactive,
O=C(COC(=O)CCSc1ccccc1)NCc1ccccc1,"inconclusive [inhibitor, single point]",
CC(=O)c1cn(CC(=O)Nc2ccccc2F)c2ccccc12,active: 11.2 µM,
Cc1nn(C)cc1C(=O)Nc1cc(Oc2ccc(Cl)cc2)cc([N+](=O)[O-])c1,"inconclusive [inhibitor, single point]",

Compound,Potency,"activity change, negative = inhibition"
Cn1ccc(C(=O)OCC(=O)Nc2ccccc2Cl)n1,active: 3.16 µM,
CCOc1ccc(/C=N/NC(=O)C(O)c2ccccc2)c(O)c1 (configuration not stated),inactive,
Cc1cccc(-n2c(CNC(=O)c3ccc(S(=O)(=O)N4CCCCC4)cc3)n[nH]c2=S)c1,inactive,
CC(C)(C)OC(=O)N1CCC[C@H]1C(=O)Nc1ccc(S(=O)(=O)C(F)F)cc1,"inconclusive [inhibitor, partial curve]",
Cc1cc(C)nc(/N=C(\N)Nc2ccc(SC(F)F)cc2)n1,"inconclusive [inhibitor, partial curve]",
CC(OC(=O)c1ccc2ncsc2c1)C(=O)Nc1cccc(Cl)c1 (configuration not stated),"inconclusive [inhibitor, single point]",
C=CCNc1cc(N2CCCC2)ccc1[N+](=O)[O-],"inconclusive [inhibitor, partial curve]",
Cc1n(CC(O)COC2CCCCC2)c2ccccc2[n+]1C (configuration not stated),inactive,
O=C(CCc1ccc(S(=O)(=O)NC2CCCCC2)cc1)NCc1ccc(Cl)cc1,"inconclusive [inhibitor, single point]",
Clc1ccc(Cc2nc(-c3ccncc3)no2)cc1,"inconclusive [inhibitor, single point]",
O=S(=O)(c1ccc(-c2nnc(SCc3nnc(-c4ccccc4)o3)o2)cc1)N1CCCC1,"inconclusive [inhibitor, single point]",
COc1ccc(Cl)cc1NC(=O)CN(C)C(=O)CN1C(=O)NC(C)(c2ccc3ccccc3c2)C1=O (configuration not stated),"inconclusive [inhibitor, single point]",
CCOC(=O)c1c(NC(=O)CSc2nnc(C)s2)sc2c1CCCCC2,active: 10 µM,
Cn1nc(C(F)(F)F)c(-c2ccc(F)cc2)c1NC(=O)Nc1ccc(F)cc1,,inconclusive: -35.7% [inhibitor]
CS(=O)(=O)N(Cc1ccccc1)c1ccc(C(=O)Nc2ccc(C(N)=O)cc2)cc1,inactive,
CNc1cccc2c1C(=O)c1ccccc1C2=O,active: 12.6 µM,
Cc1cccc(NC(=O)COC(=O)c2cccs2)c1C,inactive,
O=C(N/N=C/c1ccc(N2CCCCC2)o1)c1ccccc1[N+](=O)[O-],inactive,
O=C(NC(=S)N1CCN(c2ccc([N+](=O)[O-])cc2)CC1)c1ccccc1Cl,"inconclusive [inhibitor, single point]",
Cc1cc(C(=O)CN2C(=O)NC3(CCCCC3C)C2=O)c(C)n1Cc1cccs1 (configuration not stated),"inconclusive [inhibitor, single point]",
CC(C)Oc1ccc(C(=O)NC(=S)Nc2ccc(CN3CCOCC3)cc2)cc1,"inconclusive [inhibitor, single point]",
CN(C)c1ccc(C(CNC(=O)c2ccc(C#N)cc2)c2c[nH]c3ccccc23)cc1 (configuration not stated),"inconclusive [inhibitor, single point]",
O=C(OCCCN1CCCCC1)c1ccc(O)cc1,inactive,
Cn1nnnc1SCCNCC#Cc1ccccc1,inactive,
